Reference: PMC10721154
Results are given in words; binding and its absence hold for the method and conditions named. In cells and extracts the contact can be indirect. Some binding calls cover weakened binding; strength is not graded here. For some assays here: Sequences can lack the tags named with a protein. One block for each molecule: values may come before it.

Protein sequences, listed by entry. Tags and fused reporters are not part of them. Lines headed by an entry give the natural chain unless they say otherwise; changes in a name come on top. Chains listed by the source or under a name are the forms on record and can include a tag or linker. Residues count along the entry.
Myc-AHR (P35869, residues 11-848): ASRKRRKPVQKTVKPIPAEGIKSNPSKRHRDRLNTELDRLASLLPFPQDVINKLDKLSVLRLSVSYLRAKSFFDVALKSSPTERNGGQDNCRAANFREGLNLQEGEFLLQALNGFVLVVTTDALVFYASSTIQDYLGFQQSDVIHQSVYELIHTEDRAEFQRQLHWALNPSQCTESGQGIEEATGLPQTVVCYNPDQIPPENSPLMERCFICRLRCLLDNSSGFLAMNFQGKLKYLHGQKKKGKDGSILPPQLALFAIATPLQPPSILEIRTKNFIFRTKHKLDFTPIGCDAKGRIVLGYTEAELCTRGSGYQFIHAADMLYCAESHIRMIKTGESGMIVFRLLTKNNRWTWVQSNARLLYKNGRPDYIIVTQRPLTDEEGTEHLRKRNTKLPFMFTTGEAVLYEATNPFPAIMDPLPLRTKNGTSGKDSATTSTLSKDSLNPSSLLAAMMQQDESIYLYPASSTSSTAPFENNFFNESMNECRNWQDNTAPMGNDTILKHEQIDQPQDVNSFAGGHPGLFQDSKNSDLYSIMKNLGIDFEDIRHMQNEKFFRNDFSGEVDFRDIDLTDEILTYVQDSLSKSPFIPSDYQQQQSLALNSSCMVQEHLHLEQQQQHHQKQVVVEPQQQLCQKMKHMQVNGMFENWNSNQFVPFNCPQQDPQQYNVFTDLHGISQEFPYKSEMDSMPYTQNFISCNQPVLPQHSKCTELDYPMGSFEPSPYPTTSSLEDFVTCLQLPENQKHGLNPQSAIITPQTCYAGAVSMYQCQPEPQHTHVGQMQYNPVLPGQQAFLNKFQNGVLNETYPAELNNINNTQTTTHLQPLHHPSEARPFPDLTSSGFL
Myc-AHR(C300A) (P35869, form named): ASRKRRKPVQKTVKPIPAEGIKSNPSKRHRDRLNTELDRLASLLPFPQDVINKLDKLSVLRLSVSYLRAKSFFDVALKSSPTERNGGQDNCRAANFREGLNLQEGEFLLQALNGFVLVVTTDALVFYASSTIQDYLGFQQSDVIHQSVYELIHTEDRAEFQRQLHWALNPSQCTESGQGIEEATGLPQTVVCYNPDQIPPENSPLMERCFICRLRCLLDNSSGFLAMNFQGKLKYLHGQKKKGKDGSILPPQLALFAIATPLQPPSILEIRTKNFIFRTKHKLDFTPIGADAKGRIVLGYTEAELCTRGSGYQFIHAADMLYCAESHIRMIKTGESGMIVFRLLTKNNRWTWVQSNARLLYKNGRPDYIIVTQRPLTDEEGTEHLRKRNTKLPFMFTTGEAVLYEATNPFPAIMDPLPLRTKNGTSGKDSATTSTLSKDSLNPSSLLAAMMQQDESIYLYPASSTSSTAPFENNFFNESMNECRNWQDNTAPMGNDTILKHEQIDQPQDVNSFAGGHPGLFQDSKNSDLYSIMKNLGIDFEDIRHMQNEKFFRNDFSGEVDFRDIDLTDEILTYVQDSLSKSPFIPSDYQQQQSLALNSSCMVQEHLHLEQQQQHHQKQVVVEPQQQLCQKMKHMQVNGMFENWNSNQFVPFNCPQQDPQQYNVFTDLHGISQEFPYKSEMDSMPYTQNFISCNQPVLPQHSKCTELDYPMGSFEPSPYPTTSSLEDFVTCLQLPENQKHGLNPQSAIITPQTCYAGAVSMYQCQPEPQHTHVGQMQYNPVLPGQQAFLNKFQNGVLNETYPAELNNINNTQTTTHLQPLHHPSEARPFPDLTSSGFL

Experiments:
[1] = biological target: T1, starch-binding domain containing protein 1 (STBD1) (human (endogenous in MCF-7, MCF-7/DDP, A549/5-Fu, HEK293T)) (UniProt O95210); assay: co-IP; HEK293T cells transfected with tagged plasmids, treated with H2O2 (200 uM where printed) for 30 minutes or DDP (20 uM) for 12 hours; anti-Flag M2, anti-Myc or anti-HA beads, or anti-STBD1; Western blot
T1 sequence: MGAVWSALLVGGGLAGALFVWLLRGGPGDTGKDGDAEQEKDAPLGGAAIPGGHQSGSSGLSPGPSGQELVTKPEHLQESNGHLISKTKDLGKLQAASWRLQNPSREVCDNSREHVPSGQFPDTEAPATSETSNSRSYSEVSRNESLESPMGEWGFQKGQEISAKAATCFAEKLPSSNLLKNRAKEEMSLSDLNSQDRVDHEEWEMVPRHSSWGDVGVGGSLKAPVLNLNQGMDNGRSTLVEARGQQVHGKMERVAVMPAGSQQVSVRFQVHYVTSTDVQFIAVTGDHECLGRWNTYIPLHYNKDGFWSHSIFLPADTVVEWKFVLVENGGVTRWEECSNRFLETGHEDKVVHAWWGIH

[2] = biological target: T2, HA-PTG (UniProt Q9UQK1); assay: as above
T2 sequence: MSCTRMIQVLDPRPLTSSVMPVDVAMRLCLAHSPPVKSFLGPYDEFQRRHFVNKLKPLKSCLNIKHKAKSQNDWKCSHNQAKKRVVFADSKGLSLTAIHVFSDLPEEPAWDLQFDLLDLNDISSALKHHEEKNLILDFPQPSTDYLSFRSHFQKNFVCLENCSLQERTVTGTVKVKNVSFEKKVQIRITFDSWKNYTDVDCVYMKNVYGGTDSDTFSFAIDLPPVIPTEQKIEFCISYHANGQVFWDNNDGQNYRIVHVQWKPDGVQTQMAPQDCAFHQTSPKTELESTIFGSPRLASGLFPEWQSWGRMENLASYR

[3] = biological target: T1, starch-binding domain containing protein 1 (STBD1) (human (endogenous in MCF-7, MCF-7/DDP, A549/5-Fu, HEK293T)); assay: co-IP; endogenous proteins in lysates of tumor cells (MCF-7, MCF-7/DDP, A549/5-Fu), untreated or treated with DDP or 5-Fu for 24 hours, some with si-Ctrl or si-AHR; indicated antibodies (anti-STBD1, anti-HSP90, anti-AHR, anti-p-PYGL, anti-PTG) overnight at 4 C, Protein A/G beads; Western blot
[4] = biological target: Myc-AHR (human) (UniProt P35869); assay: co-IP; HEK293T cells transfected with tagged plasmids, treated with H2O2 (200 uM where printed) for 30 minutes or DDP (20 uM) for 12 hours; anti-Flag M2, anti-Myc or anti-HA beads, or anti-STBD1; Western blot
[5] = biological target: aryl hydrocarbon receptor (AHR) (human (endogenous in MCF-7/DDP, A549/5-Fu)) (UniProt P35869); assay: co-IP; endogenous proteins in lysates of tumor cells (MCF-7, MCF-7/DDP, A549/5-Fu), untreated or treated with DDP or 5-Fu for 24 hours, some with si-Ctrl or si-AHR; indicated antibodies (anti-STBD1, anti-HSP90, anti-AHR, anti-p-PYGL, anti-PTG) overnight at 4 C, Protein A/G beads; Western blot
[6] = biological target: T1, starch-binding domain containing protein 1 (STBD1) (human (endogenous in MCF-7, MCF-7/DDP, A549/5-Fu, HEK293T)); assay: as above; remark: listed apart in the source
[7] = biological target: Flag-tagged human AHR (Flag-AHR) (human) (UniProt P35869); assay: co-IP; HEK293T cells transfected with tagged plasmids, treated with H2O2 (200 uM where printed) for 30 minutes or DDP (20 uM) for 12 hours; anti-Flag M2, anti-Myc or anti-HA beads, or anti-STBD1; Western blot

binding [1]: binds
Molecule: Myc-AHR (from UniProt P35869 11-848)

binding [1]: no binding
Molecule: Myc-AHR(C300A) (from UniProt P35869 11-848)

binding [3]: binds
Molecule: aryl hydrocarbon receptor (AHR) (from UniProt P35869 11-848)

binding [5]: binds
B3: PPP1R3 family member PPP1R3C (PTG) (protein, UniProt Q9UQK1 1-317)
chain: MSCTRMIQVLDPRPLTSSVMPVDVAMRLCLAHSPPVKSFLGPYDEFQRRHFVNKLKPLKSCLNIKHKAKSQNDWKCSHNQAKKRVVFADSKGLSLTAIHVFSDLPEEPAWDLQFDLLDLNDISSALKHHEEKNLILDFPQPSTDYLSFRSHFQKNFVCLENCSLQERTVTGTVKVKNVSFEKKVQIRITFDSWKNYTDVDCVYMKNVYGGTDSDTFSFAIDLPPVIPTEQKIEFCISYHANGQVFWDNNDGQNYRIVHVQWKPDGVQTQMAPQDCAFHQTSPKTELESTIFGSPRLASGLFPEWQSWGRMENLASYR

Further lines, the molecule ahead of its results:

Molecule: Flag-tagged human AHR (Flag-AHR) (from UniProt P35869 11-848)
binding [2]: binds

B1: HA-PTG(139-317) (domain or fragment, UniProt Q9UQK1 139-317)
chain: PQPSTDYLSFRSHFQKNFVCLENCSLQERTVTGTVKVKNVSFEKKVQIRITFDSWKNYTDVDCVYMKNVYGGTDSDTFSFAIDLPPVIPTEQKIEFCISYHANGQVFWDNNDGQNYRIVHVQWKPDGVQTQMAPQDCAFHQTSPKTELESTIFGSPRLASGLFPEWQSWGRMENLASYR
binding [4]: no binding

B2: AHR-interacting protein (AIP) (protein, UniProt O00170 1-330)
chain: MADIIARLREDGIQKRVIQEGRGELPDFQDGTKATFHYRTLHSDDEGTVLDDSRARGKPMELIIGKKFKLPVWETIVCTMREGEIAQFLCDIKHVVLYPLVAKSLRNIAVGKDPLEGQRHCCGVAQMREHSSLGHADLDALQQNPQPLIFHMEMLKVESPGTYQQDPWAMTDEEKAKAVPLIHQEGNRLYREGHVKEAAAKYYDAIACLKNLQMKEQPGSPEWIQLDQQITPLLLNYCQCKLVVEEYYEVLDHCSSILNKYDDNVKAYFKRGKAHAAVWNAQEAQADFAKVLELDPALAPVVSRELRALEARIRQKDEEDKARFRGIFSH
binding [5]: binds
binding [6]: no binding

B4: HA-PTG (protein, UniProt Q9UQK1 1-317)
chain: MSCTRMIQVLDPRPLTSSVMPVDVAMRLCLAHSPPVKSFLGPYDEFQRRHFVNKLKPLKSCLNIKHKAKSQNDWKCSHNQAKKRVVFADSKGLSLTAIHVFSDLPEEPAWDLQFDLLDLNDISSALKHHEEKNLILDFPQPSTDYLSFRSHFQKNFVCLENCSLQERTVTGTVKVKNVSFEKKVQIRITFDSWKNYTDVDCVYMKNVYGGTDSDTFSFAIDLPPVIPTEQKIEFCISYHANGQVFWDNNDGQNYRIVHVQWKPDGVQTQMAPQDCAFHQTSPKTELESTIFGSPRLASGLFPEWQSWGRMENLASYR
binding [7]: binds

B5: HA-PTG(V85A/F87A) (protein, UniProt Q9UQK1 1-317)
chain: MSCTRMIQVLDPRPLTSSVMPVDVAMRLCLAHSPPVKSFLGPYDEFQRRHFVNKLKPLKSCLNIKHKAKSQNDWKCSHNQAKKRAVAADSKGLSLTAIHVFSDLPEEPAWDLQFDLLDLNDISSALKHHEEKNLILDFPQPSTDYLSFRSHFQKNFVCLENCSLQERTVTGTVKVKNVSFEKKVQIRITFDSWKNYTDVDCVYMKNVYGGTDSDTFSFAIDLPPVIPTEQKIEFCISYHANGQVFWDNNDGQNYRIVHVQWKPDGVQTQMAPQDCAFHQTSPKTELESTIFGSPRLASGLFPEWQSWGRMENLASYR
binding [7]: no binding

B6: HA-PTG(1-138) (domain or fragment, UniProt Q9UQK1 1-138)
chain: MSCTRMIQVLDPRPLTSSVMPVDVAMRLCLAHSPPVKSFLGPYDEFQRRHFVNKLKPLKSCLNIKHKAKSQNDWKCSHNQAKKRVVFADSKGLSLTAIHVFSDLPEEPAWDLQFDLLDLNDISSALKHHEEKNLILDF
binding [4]: binds
